In paper PMC5892938 one finds binding signal (log2 fold change) data, which are given here for 48 sequences.

Some of the results follow. At the low end of the ranking the order means little.

This assay has as its target GST-SBP-SLBP (stem-loop binding protein) (UniProt Q14493). In words: targeted RNA Bind-n-Seq.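 Also: DESeq read counts versus GST-SBP nonspecific binding control pulldown.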 The following applies: RBNS binding buffer: 25 mM Tris pH 7.5, 150 mM KCl, 3 mM MgCl2, 0.1% Tween, 0.5 mg/mL BSA, 1 mM DTT; 27 nM protein, 750 pM RNA pool; temperature not stated; high values mean tight binding.
In the case of “GGUCACGUCUCAAUCAACUCCCAAGAGGGGGGGAAAACCCCUUUGCCCUCCAAUUCAACAGCUCGCAGUCAAG”, the binding signal (log2 fold change) is 0.146.
In the case of “GGUCACGUCUCAAUCAACUCAAUUCCCAGGGAAAUCCCUGGUUUUCUCAACAGCUCGCAGUCAAG”, the binding signal (log2 fold change) was -0.076.
The result for “GGUCACGUCUCAAUCAACUCUACUCCAGGAGUUUUCUCCUGUUAUCUCAACAGCUCGCAGUCAAG” reads -0.0302; that for “GGUCACGUCUCAAUCAACUCUUCUCCCAGGGAAACCCCUGGUUAUUUCAACAGCUCGCAGUCAAG”, 0.372; that for “GGUCACGUCUCAAUCAACUCAAUUUCCAGGGAAACCCCUGGUAUUCUCAACAGCUCGCAGUCAAG”, -0.115.
Turning to “GGUCACGUCUCAAUCAACUCAAUCCCAGGAGUUUCCUCCUGUAGUCUCAACAGCUCGCAGUCAAG”, the binding signal (log2 fold change) is -0.0291.
In the case of “GGUCACGUCUCAAUCAACUCAGUCUCCAGGGAAAGCCCUGGCAAUCUCAACAGCUCGCAGUCAAG”, the binding signal (log2 fold change) was 0.0778.
For the sequence “GGUCACGUCUCAAUCAACUCAAUCUCCAGGGAAAUCCCUGGCAUAUUCAACAGCUCGCAGUCAAG”, the binding signal (log2 fold change) turned out to be 0.0318.
Consider “GGUCACGUCUCAAUCAACUCAUUUCCAGGAGUUUACUCCUGUUAUUUCAACAGCUCGCAGUCAAG”, for which the binding signal (log2 fold change) came to 0.0536.
The result for “GGUCACGUCUCAAUCAACUCAUCUCCCAGGGAAACCCCUGGCUUUUUCAACAGCUCGCAGUCAAG” reads 0.00794; that for “GGUCACGUCUCAAUCAACUCAUUCCCAGGAGUUUUCUCCUGUUUACUCAACAGCUCGCAGUCAAG”, 0.203.
The result for “GGUCACGUCUCAAUCAACUCUAUCUCAGGAGUUUUCUCCUGUAAACUCAACAGCUCGCAGUCAAG” reads 0.107.
Under “GGUCACGUCUCAAUCAACUCAUUAGAGGGGGGGAAAACCCCUUUGCCCUCCAAAUCAACAGCUCGCAGUCAAG” stands 0.283; under “GGUCACGUCUCAAUCAACUCCCUCGAGGGGGGGAAAACCCCUUUACCCUCUCUAUCAACAGCUCGCAGUCAAG”, -0.0615; under “GGUCACGUCUCAAUCAACUCAAACGAGGGGGGGAAAACCCCUUUACCCUCAUUCUCAACAGCUCGCAGUCAAG”, 0.326.
In the case of “GGUCACGUCUCAAUCAACUCAAUUUCCAGGGAAACCCCUGGUUUUCUCAACAGCUCGCAGUCAAG”, the binding signal (log2 fold change) was 0.173.
The result for “GGUCACGUCUCAAUCAACUCAACGCCAGGAGUUUUCUCCUGUAUUUUCAACAGCUCGCAGUCAAG” reads 0.0894.
Take “GGUCACGUCUCAAUCAACUCAAUUCCCAGGGAAAUCCCUGGCUAUCUCAACAGCUCGCAGUCAAG”: the binding signal (log2 fold change) stood at 0.251.
In the case of “GGUCACGUCUCAAUCAACUCUAGUCCCAGGGAAACCCCUGGCUUAUUCAACAGCUCGCAGUCAAG”, the binding signal (log2 fold change) turned out to be 0.054.
The result for “GGUCACGUCUCAAUCAACUCGUCUUCAGGAGUUUCCUCCUGCUAAUUCAACAGCUCGCAGUCAAG” reads 0.00712.
For the sequence “GGUCACGUCUCAAUCAACUCUUCUUCCAGGGAAACCCCUGGUUAUCUCAACAGCUCGCAGUCAAG”, the binding signal (log2 fold change) is -0.058.
Regarding “GGUCACGUCUCAAUCAACUCCAAAGAGGGGGGGAAAACCCCUUUGCCCUCAUAUUCAACAGCUCGCAGUCAAG”, the binding signal (log2 fold change) came out at 0.158.
The result for “GGUCACGUCUCAAUCAACUCAUUCUCCAGGGAAACCCCUGGUUAACUCAACAGCUCGCAGUCAAG” reads -0.172; that for “GGUCACGUCUCAAUCAACUCAUUCCCAGGAGUUUCCUCCUGUUUUCUCAACAGCUCGCAGUCAAG”, -0.0426.
Consider “GGUCACGUCUCAAUCAACUCAUUUCCAGGAGUUUACUCCUGCUAUCUCAACAGCUCGCAGUCAAG”, for which the binding signal (log2 fold change) was -0.0271.
In the case of “GGUCACGUCUCAAUCAACUCAUCCCCCAGGGAAAUCCCUGGCAUUCUCAACAGCUCGCAGUCAAG”, the binding signal (log2 fold change) worked out at 0.188.
Take “GGUCACGUCUCAAUCAACUCAUCCUCCAGGGAAAACCCUGGUUUUCUCAACAGCUCGCAGUCAAG”: the binding signal (log2 fold change) worked out at 0.119.
The result for “GGUCACGUCUCAAUCAACUCAUCCUCAGGAGUUUACUCCUGUUAACUCAACAGCUCGCAGUCAAG” reads 0.0749.
For the sequence “GGUCACGUCUCAAUCAACUCUUUUUCAGGAGUUUCCUCCUGCUAACUCAACAGCUCGCAGUCAAG”, the binding signal (log2 fold change) was found to be 0.0191.
Take “GGUCACGUCUCAAUCAACUCUUCCUCCAGGGAAAUCCCUGGUAAAUUCAACAGCUCGCAGUCAAG”: the binding signal (log2 fold change) is 0.28.
The result for “GGUCACGUCUCAAUCAACUCAGUCCCAGGAGUUUUCUCCUGUUUUCUCAACAGCUCGCAGUCAAG” reads 0.0934; that for “GGUCACGUCUCAAUCAACUCAUUCCCCAGGGAAAACCCUGGUUAAUUCAACAGCUCGCAGUCAAG”, 0.155; that for “GGUCACGUCUCAAUCAACUCCUUCGAGGGGGGGAAAACCCCUUUACCCUCUAUAUCAACAGCUCGCAGUCAAG”, -0.321.
Under “GGUCACGUCUCAAUCAACUCAAUUCCCAGGGAAACCCCUGGCAUAUUCAACAGCUCGCAGUCAAG” stands 0.0493.
Consider “GGUCACGUCUCAAUCAACUCUUUCUCCAGGGAAAGCCCUGGUUUUUUCAACAGCUCGCAGUCAAG”, for which the binding signal (log2 fold change) is -0.255.
Under “GGUCACGUCUCAAUCAACUCUAUCUCCAGGGAAACCCCUGGCAAUUUCAACAGCUCGCAGUCAAG” stands -0.03; under “GGUCACGUCUCAAUCAACUCUUCUCCAGGAGUUUUCUCCUGCUUUUUCAACAGCUCGCAGUCAAG”, 0.0172; under “GGUCACGUCUCAAUCAACUCAUCCCCCAGGGAAAGCCCUGGCUUACUCAACAGCUCGCAGUCAAG”, 0.352.
Under “GGUCACGUCUCAAUCAACUCAAUUUCCAGGGAAAGCCCUGGCAUUCUCAACAGCUCGCAGUCAAG” stands -0.0792; under “GGUCACGUCUCAAUCAACUCAUCCUCAGGAGUUUCCUCCUGCAUACUCAACAGCUCGCAGUCAAG”, 0.108.
The result for “GGUCACGUCUCAAUCAACUCCUCAGAGGGGGGGAAAACCCCUUUGCCCUCAAAUUCAACAGCUCGCAGUCAAG” reads 0.191.
Regarding “GGUCACGUCUCAAUCAACUCUAUUUCCAGGGAAACCCCUGGUAUUCUCAACAGCUCGCAGUCAAG”, the binding signal (log2 fold change) is -0.154.
The result for “GGUCACGUCUCAAUCAACUCUUCAGAGGGGGGGAAAACCCCUUUGCCCUCAUUAUCAACAGCUCGCAGUCAAG” reads -0.0583.
Under “GGUCACGUCUCAAUCAACUCAGUCCCCAGGGAAAACCCUGGCUAAUUCAACAGCUCGCAGUCAAG” stands -0.133; under “GGUCACGUCUCAAUCAACUCAACUCCCAGGGAAACCCCUGGCAUUCUCAACAGCUCGCAGUCAAG”, 0.171.
As for “GGUCACGUCUCAAUCAACUCAUCCUCCAGGGAAAGCCCUGGCAUAUUCAACAGCUCGCAGUCAAG”, the binding signal (log2 fold change) amounted to 0.0586.
“GGUCACGUCUCAAUCAACUCUACUCCAGGAGUUUACUCCUGUAUUUUCAACAGCUCGCAGUCAAG”: the binding signal (log2 fold change) came to 0.158.
“GGUCACGUCUCAAUCAACUCCAAGGAGGGGGGGAAAACCCCUUUACCCUCAUUCUCAACAGCUCGCAGUCAAG”: the binding signal (log2 fold change) was -0.156.
